Each compound was assayed against Recombinant heterodimeric HCV NS3/NS4A protease (strain 1a) (Hepatitis C virus genotype 1a, UniProt P27958) (assay: Spectrophotometric assay for HCV protease inhibitory activity (chromogenic ester substrates)). Conditions: Table 1: Ketones; read-out: Ki* Range.
Assay type: biochemical
Description: The present invention relates to novel HCV protease inhibitors. This utility can be manifested in their ability to inhibit the HCV NS2/NS4a serine protease.
Assay for HCV Protease Inhibitory Activity:
Spectrophotometric Assay: Spectrophotometric assay for the HCV serine protease can be performed on the inventive compounds by following the procedure described by R. Zhang et al, Analytical Biochemistry, 270 (1999) 268-275, the disclosure of which is incorporated herein by reference. The assay based on the proteolysis of chromogenic ester substrates is suitable for the continuous monitoring of HCV NS3 protease activity. The substrates are derived from the P side of the NS5A-NS5B junction sequence (Ac-DTEDVVX(Nva), where X=A or P) whose C-terminal carboxyl groups are esterified with one of four different chromophoric alcohols (3- or 4-nitrophenol, 7-hydroxy-4-methyl-coumarin, or 4-phenylazophenol). Illustrated below are the synthesis, characterization and application of these novel spectrophotometric ester substrates to high throughput screening and detailed kinetic evaluation of HCV NS3 protease inhibitors. Materials and Methods:
Materials: Chemical reagents for assay related buffers are obtained from Sigma Chemical Company (St. Louis, Mo.). Reagents for peptide synthesis were from Aldrich Chemicals, Novabiochem (San Diego, Calif.), Applied Biosystems (Foster City, Calif.) and Perseptive Biosystems (Framingham, Mass.). Peptides are synthesized manually or on an automated ABI model 431A synthesizer (from Applied Biosystems). UVNIS Spectrometer model LAMBDA 12 was from Perkin Elmer (Norwalk, Conn.) and 96-well UV plates were obtained from Corning (Corning, N.Y.). The prewarming block can be from USA Scientific (Ocala, Fla.) and the 96-well plate vortexer is from Labline Instruments (Melrose Park, Ill.). A Spectramax Plus microtiter plate reader with monochrometer is obtained from Molecular Devices (Sunnyvale, Calif.).
Protein concentrations are determined by the Biorad dye method using recombinant HCV protease standards previously quantified by amino acid analysis. Prior to assay initiation, the enzyme storage buffer (50 mM sodium phosphate pH 8.0, 300 mM NaCl, 10% glycerol, 0.05% lauryl maltoside and 10 mM DTT) is exchanged for the assay buffer (25 mM MOPS pH 6.5, 300 mM NaCl, 10% glycerol, 0.05% lauryl maltoside, 5 μM EDTA and 5 μM DTT) utilizing a Biorad Bio-Spin P-6 prepacked column. Substrate Synthesis and Purification: The synthesis of the substrates is done as reported by R. Zhang et al, (ibid.) and is initiated by anchoring Fmoc-Nva-OH to 2-chlorotrityl chloride resin using a standard protocol (K. Barlos et al, Int. J. Pept. Protein Res., 37 (1991), 513-520). The peptides are subsequently assembled, using Fmoc chemistry, either manually or on an automatic ABI model 431 peptide synthesizer. […] The combined filtrate and DCM wash is evaporated azeotropically (or repeatedly extracted by aqueous Na2CO3 solution) to remove the acid used in cleavage. The DCM phase is dried over Na2SO4 and evaporated.
The ester substrates are assembled using standard acid-alcohol coupling procedures (K. Holmber et al, Acta Chem. Scand., B33 (1979) 410-412). Peptide fragments are dissolved in anhydrous pyridine (30-60 mg/ml) to which 10 molar equivalents of chromophore and a catalytic amount (0.1 eq.) of para-toluenesulfonic acid (pTSA) were added. Dicyclohexylcarbodiimide (DCC, 3 eq.) is added to initiate the coupling reactions. Product formation is monitored by HPLC and can be found to be complete following 12-72 hour reaction at room temperature. Pyridine solvent is evaporated under vacuum and further removed by azeotropic evaporation with toluene.
Work on `CC(C)[C@H](NC(=O)N[C@H](C(=O)N1C[C@H]2[C@@H]([C@H]1C(=O)NC(CC1CC1)C(=O)C(N)=O)C2(C)C)C(C)(C)C)C(=O)c1ccccc1` (some centres unmarked) [compound 4010] yielded a Ki of under 75 nM.
Compound `CC(C)[C@H](NC(=O)N[C@H](C(=O)N1C[C@H]2[C@@H]([C@H]1C(=O)NC(CC1CC1)C(=O)C(N)=O)C2(C)C)C(C)(C)C)C(=O)Cc1ccccc1` (some centres unmarked) [compound 4011] has a Ki of under 75 nM.
Work on `COc1ccc(C(=O)[C@@H](NC(=O)N[C@H](C(=O)N2C[C@H]3[C@@H]([C@H]2C(=O)NC(CC2CC2)C(=O)C(N)=O)C3(C)C)C(C)(C)C)C(C)C)cc1` (some centres unmarked) [compound 4012] yielded a Ki of under 75 nM.
In the case of `CC(C)[C@H](NC(=O)N[C@H](C(=O)N1C[C@H]2[C@@H]([C@H]1C(=O)NC(CC1CC1)C(=O)C(N)=O)C2(C)C)C(C)(C)C)C(=O)C1CC1` (some centres unmarked) [compound 4016], the Ki is reported as under 75 nM.
In the case of `CC(C)[C@H](NC(=O)N[C@H](C(=O)N1C[C@H]2[C@@H]([C@H]1C(=O)NC(CC1CCC1)C(=O)C(N)=O)C2(C)C)C(C)(C)C)C(=O)c1ccccn1` (some centres unmarked) [compound 4017], the Ki is reported as under 75 nM.
Compound `CC(C)[C@H](NC(=O)N[C@H](C(=O)N1C[C@H]2[C@@H]([C@H]1C(=O)NC(CC1CC1)C(=O)C(N)=O)C2(Cl)Cl)C(C)(C)C)C(=O)C1CC1` (some centres unmarked) [compound 4018] has a Ki of under 75 nM.
With `CC(C)[C@H](NC(=O)N[C@H](C(=O)N1C[C@H]2[C@@H]([C@H]1C(=O)NC(CC1CC1)C(=O)C(N)=O)C2(C)C)C(C)(C)C)C(=O)c1nccs1` (some centres unmarked) [compound 4021] the Ki was under 75 nM.
For `CC(C)[C@H](NC(=O)N[C@H](C(=O)N1C[C@H]2[C@@H]([C@H]1C(=O)NC(CC1CC1)C(=O)C(N)=O)C2(C)C)C(C)(C)C)C(=O)c1ccccn1` (some centres unmarked) [compound 4022], the Ki was under 75 nM.
`CC(C)(C)[C@H](NC(=O)N[C@H](C(=O)C1CC1)C1CCCCC1)C(=O)N1C[C@H]2[C@@H]([C@H]1C(=O)NC(CC1CC1)C(=O)C(N)=O)C2(C)C` (some centres unmarked) [compound 4023] gave a Ki of under 75 nM.
With `CC1(C(=O)[C@@H](NC(=O)N[C@H](C(=O)N2C[C@H]3[C@@H]([C@H]2C(=O)NC(CC2CC2)C(=O)C(N)=O)C3(C)C)C(C)(C)C)C2CCCCC2)CC1` (some centres unmarked) [compound 4025] the Ki was under 75 nM.
Compound `CC(C)[C@H](NC(=O)N[C@H](C(=O)N1C[C@H]2[C@@H]([C@H]1C(=O)NC(CC1CC1)C(=O)C(N)=O)C2(C)C)C(C)(C)C)C(=O)c1cccs1` (some centres unmarked) [compound 4026] has a Ki of under 75 nM.
`Cc1ccc(C(=O)[C@@H](NC(=O)N[C@H](C(=O)N2C[C@H]3[C@@H]([C@H]2C(=O)NC(CC2CC2)C(=O)C(N)=O)C3(C)C)C(C)(C)C)C(C)C)cc1` (some centres unmarked) [compound 4027] was tested, and the Ki was under 75 nM.
Work on `CC(C)[C@H](NC(=O)N[C@H](C(=O)N1C[C@H]2[C@@H]([C@H]1C(=O)NC(CC1CC1)C(=O)C(N)=O)C2(C)C)C1CCCCC1)C(=O)c1ccccc1` (some centres unmarked) [compound 4028] yielded a Ki of under 75 nM.
Work on `CC(C)[C@H](NC(=O)N[C@H](C(=O)N1C[C@H]2[C@@H]([C@H]1C(=O)NC(CC1CC1)C(=O)C(N)=O)C2(C)C)C(C)(C)C)C(=O)c1ccc(N(C)C)cc1` (some centres unmarked) [compound 4029] yielded a Ki of under 75 nM.
Work on `Cc1csc(C(=O)[C@@H](NC(=O)N[C@H](C(=O)N2C[C@H]3[C@@H]([C@H]2C(=O)NC(CC2CC2)C(=O)C(N)=O)C3(C)C)C(C)(C)C)C(C)C)n1` (some centres unmarked) [compound 4030] yielded a Ki of under 75 nM.
Compound `CC(C)[C@H](NC(=O)N[C@H](C(=O)N1C[C@H]2[C@@H]([C@H]1C(=O)NC(CC1CC1)C(=O)C(N)=O)C2(Cl)Cl)C(C)(C)C)C(=O)c1ccccc1` (some centres unmarked) [compound 4031] has a Ki of under 75 nM.
`C#CCCC(NC(=O)[C@@H]1[C@@H]2[C@H](CN1C(=O)[C@@H](NC(=O)N[C@H](C(=O)C1CC1)C1CCCCC1)C(C)(C)C)C2(C)C)C(=O)C(=O)NCC=C` (some centres unmarked) [compound 4032] showed a Ki of under 75 nM.
For `C#CCCC(NC(=O)[C@@H]1[C@@H]2[C@H](CN1C(=O)[C@@H](NC(=O)N[C@H](C(=O)c1nccs1)C1CCCCC1)C(C)(C)C)C2(C)C)C(=O)C(=O)NCC=C` (some centres unmarked) [compound 4034], the Ki was under 75 nM.
For `CC(C)(C)[C@H](NC(=O)N[C@H](C(=O)c1ccccc1)C1CCCCC1)C(=O)N1C[C@H]2[C@@H]([C@H]1C(=O)NC(CC1CC1)C(=O)C(N)=O)C2(C)C` (some centres unmarked) [compound 4035], the Ki was under 75 nM.
`CC(C)[C@@H](CC(=O)C1CC1)NC(=O)N[C@H](C(=O)N1C[C@H]2[C@@H]([C@H]1C(=O)NC(CC1CC1)C(=O)C(N)=O)C2(C)C)C(C)(C)C` (some centres unmarked) [compound 4037] was tested, and the Ki was under 75 nM.
`CC(C)[C@H](NC(=O)N[C@H](C(=O)N1C[C@H]2[C@@H]([C@H]1C(=O)NC(CC1CC1)C(=O)C(N)=O)C2(C)C)C(C)(C)C)C(=O)c1ccccc1O` (some centres unmarked) [compound 4038] was tested, and the Ki was under 75 nM.
`C=CCNC(=O)C(=O)C(CCC)NC(=O)[C@@H]1[C@@H]2[C@H](CN1C(=O)[C@@H](NC(=O)N[C@H](C(=O)C1CC1)C1CCCCC1)C(C)(C)C)C2(C)C` (some centres unmarked) [compound 4039] gave a Ki of under 75 nM.
With `CC1(C)[C@@H]2[C@@H](C(=O)NC(CC3CC3)C(=O)C(N)=O)N(C(=O)[C@@H](NC(=O)N[C@H](C(=O)C3CC3)C3CCCCC3)C3CCCCC3)C[C@@H]21` (some centres unmarked) [compound 4040] the Ki was under 75 nM.
Work on `C#CCCC(NC(=O)[C@@H]1[C@@H]2[C@H](CN1C(=O)[C@@H](NC(=O)N[C@H](C(=O)c1ccccn1)C1CCCCC1)C(C)(C)C)C2(C)C)C(=O)C(=O)NCC=C` (some centres unmarked) [compound 4041] yielded a Ki of under 75 nM.
Compound `C#CCCC(NC(=O)[C@@H]1[C@@H]2[C@H](CN1C(=O)[C@@H](NC(=O)N[C@H](C(=O)c1ccccc1)C1CCCCC1)C(C)(C)C)C2(C)C)C(=O)C(=O)NCC=C` (some centres unmarked) [compound 4042] has a Ki of under 75 nM.
`CC(C)(C)C(=O)CC1(NC(=O)N[C@H](C(=O)N2C[C@H]3[C@@H]([C@H]2C(=O)NC(CC2CC2)C(=O)C(N)=O)C3(C)C)C(C)(C)C)CCCCC1` (some centres unmarked) [compound 4043] gave a Ki of under 75 nM.
Work on `CC(C)(C)[C@H](NC(=O)N[C@H](C(=O)N1C[C@H]2[C@@H]([C@H]1C(=O)NC(CC1CC1)C(=O)C(N)=O)C2(C)C)C(C)(C)C)C(=O)c1ccccc1` (some centres unmarked) [compound 4044] yielded a Ki of under 75 nM.
With `COc1ccccc1C(=O)[C@@H](NC(=O)N[C@H](C(=O)N1C[C@H]2[C@@H]([C@H]1C(=O)NC(CC1CC1)C(=O)C(N)=O)C2(C)C)C(C)(C)C)C(C)C` (some centres unmarked) [compound 4045] the Ki was under 75 nM.
`CC(C)(C)[C@H](NC(=O)N[C@H](C(=O)c1ccccc1)C1CCC1)C(=O)N1C[C@H]2[C@@H]([C@H]1C(=O)NC(CC1CC1)C(=O)C(N)=O)C2(C)C` (some centres unmarked) [compound 4046] gave a Ki of under 75 nM.

Same assay, conditions: Table 8; read-out: Ki*
`CC(C)(C)[C@H](NC(=O)N[C@H](C(=O)N1C[C@H]2[C@@H]([C@H]1C(=O)NC(CC1CCC1)C(=O)C(N)=O)C2(C)C)C(C)(C)C)C(=O)NCc1ccccc1` (some centres unmarked) showed a Ki of 40 nM.
For `C=CCNC(=O)C(=O)C(CCC)NC(=O)[C@@H]1[C@@H]2[C@H](CN1C(=O)[C@@H](NC(=O)N[C@H](C(=O)C(C)C)C(C)C)C(C)(C)C)C2(C)C` (some centres unmarked), the Ki was 30 nM.
For `CC(C)[C@H](NC(=O)N[C@H](C(=O)N1C[C@H]2[C@@H]([C@H]1C(=O)NC(CC1CC1)C(=O)C(N)=O)C2(C)C)C(C)(C)C)C(=O)N1CCCCC1` (some centres unmarked), the Ki was 17 nM.
Work on `CC(C)(C)[C@H](NC(=O)NC1(C(=O)O)CCCCC1)C(=O)N1C[C@H]2[C@@H]([C@H]1C(=O)NC(CC1CC1)C(=O)C(N)=O)C2(C)C` (some centres unmarked) yielded a Ki of 5 nM.
Compound `CC(C)(C)[C@H](NC(=O)NC1(Cc2cccc(O)c2)CCCCC1)C(=O)N1C[C@H]2[C@@H]([C@H]1C(=O)NC(CC1CC1)C(=O)C(N)=O)C2(C)C` (some centres unmarked) has a Ki of 10 nM.
`CC(C)(C)[C@H](NC(=O)NC1(Cc2ccoc2)CCCCC1)C(=O)N1C[C@H]2[C@@H]([C@H]1C(=O)NC(CC1CC1)C(=O)C(N)=O)C2(C)C` (some centres unmarked) gave a Ki of 4.3 nM.

From patent US7423058B2, “Inhibitors of hepatitis C virus NS3 protease” (Schering Corporation, priority 2004, dated 2008)
